Laboratory results published in patent publication US20200268852A1, “HEMATOPOIETIC RECOVERY FROM RADIATION INJURY” (priority 2013, published 2020).
Square brackets hold non-standard residues; d marks the D form. Peptide text beside a SMILES is read from it. * marks the point of attachment. dPhe(4-NHCONH2) = NC(=O)Nc1ccc(C[C@@H](N)C(=O)O)cc1; Dihydroorotyl(S) = O=C1C[C@@H](C(=O)*)NC(=O)N1; dPhe(4-Cl) = N[C@H](Cc1ccc(Cl)cc1)C(=O)O; Phe(4-NH2) = Nc1ccc(C[C@H](N)C(=O)O)cc1; d2Nal = N[C@H](Cc1ccc2ccccc2c1)C(=O)O; Lys(iPr) = CC(C)NCCCC[C@H](N)C(=O)O; d3Pal = N[C@H](Cc1cccnc1)C(=O)O

Columns and labels:
[1] = system: Luc+ LSK hematopoietic stem cells; test: Expansion of transferred Luciferase-positive LSK cells after lethal TBI; type: in vivo, mouse; details: 840 cGy, treated 24 hours later, Luc+ LSK transferred 48 hours after treatment, vs vehicle
Protocol: Bottom left is a bar graph indicating the total number of photons measured in both treatment groups.
We continued our analysis of the increase in hematopoietic stem cells (HSCs) in mice treated with a LHRH antagonist after irradiation using a reporter molecule (Luciferase). […] At 48 hours after treatment, 20,000 Luciferase-positive Lineage-Sca1^+ckit^+ (Luc^+ LSK) hematopoietic stem cells were transferred to animals in each treatment group.

C57BL/6 mice [2] = test: Survival after a lethal dose of irradiation (845 cGy)
[3] = system: hematopoietic stem cells (LSK, LT-HSC); test: Hematopoietic stem and progenitor cells after lethal TBI; type: in vivo, mouse; details: treated 24 hours later
Source text: FIG. 8A, bar graphs (left) show total number of cells for LSK and LT-HSC populations among treatment groups; contour plots (right) show the relative frequency of each LSK and LT-HSC populations among treatment groups. FIG. 8B, bar graphs (top row) show the percentage of LT-HSCs (CD150^+CD48^−) for the indicated gated populations (G0, G1, S/G2/M); contour plots (bottom) show the relative frequency of the LT-HSC populations for each gate among both treatment groups.
Mouse survival was monitored daily.
Further, we observed an induction of LT-HSCs to proliferate (FIG. 8B), which is a prerequisite to reconstitution of hematopoiesis.

hematopoietic stem cells = test: Repopulating potential of hematopoietic stem cells in secondary transplant; details: vs control group
C57BL/6 mice [4] = test: Survival and hormone levels after lethal TBI, with surgical castration; type: in vivo, mouse
Source text: FIG. 12A, percent survival in mice given total body irradiated (TBI, black circle), mice given total body irradiated plus castration (TBI+castration, grey triangle) and mice given total body irradiated plus castration and treated with Degarelix (TBI+castration+LHRH-Ant, grey inverted triangle). FIG. 12B, ng/mL levels of testosterone, luteinizing hormone (LH) and follicle-stimulating hormone (FSH) at 2, 7 and/or 14 days after a lethal dose of total body irradiation among control (open bars), lethal total body irradiated (LTBI, black bars) and lethal total body irradiation treated with Degarelix (LTBI+LHRH-Ant, grey bars).
In another experiment, we wanted to determine if downstream and/or upstream targets could also have an effect on survival after TBI in mice. Mice were surgically castrated one day before total body irradiation (TBI) and administered vehicle (control) or Degarelix (LHRH-Ant). […] Measurements of testosterone, follicle-stimulating hormone (FSH) and luteinizing hormone (LH) were taken for each treatment group at several days post irradiation.

SMILES | expansion of Luciferase-positive HSCs [1] | incidence of survival (C57BL/6 mice [2]; Degarelix-treated vs control group after lethal TBI) | survival, Mantel-Cox log-rank p, Degarelix vs vehicle (C57BL/6 mice [2]; females, n=15, single dose 24 hours after 845 cGy) | window for treatment after total body irradiation (C57BL/6 mice [2]; lethal TBI 845 cGy) | survival, Mantel-Cox log-rank p, Degarelix vs vehicle (C57BL/6 mice [2]; males and females, n=14, single dose 48 hours after 845 cGy) | survival, Mantel-Cox log-rank p, Degarelix vs vehicle (C57BL/6 mice [2]; males, n=40, single dose 24 hours after 845 cGy) | proliferation of LT-HSCs [3] | long-term hematopoietic stem cells (LT-HSC) ([3]; vs controls) | total Lineage-Sca1+ckit+ (LSK) cells ([3]; vs controls) | stem cells (donor CD45.2+ derived cells in recipients) (hematopoietic stem cells) | LH and FSH levels (C57BL/6 mice [4]; after lethal TBI, vs controls) | level of testosterone (C57BL/6 mice [4]; after lethal TBI, vs controls) | survival (C57BL/6 mice [4]; mice surgically castrated one day before TBI and administered Degarelix) | survival (C57BL/6 mice [2]; single dose of Lupron 24 hours after lethal TBI (845 cGy), vehicle PBS)
CC(=O)N[C@H](Cc1ccc2ccccc2c1)C(=O)N[C@H](Cc1ccc(Cl)cc1)C(=O)N[C@H](Cc1cccnc1)C(=O)N[C@@H](CO)C(=O)N[C@@H](Cc1ccc(NC(=O)[C@@H]2CC(=O)NC(=O)N2)cc1)C(=O)N[C@H](Cc1ccc(NC(N)=O)cc1)C(=O)N[C@@H](CC(C)C)C(=O)N[C@@H](CCCCNC(C)C)C(=O)N1CCC[C@H]1C(=O)N[C@H](C)C(N)=O [Degarelix] (Ac-[d2Nal][dPhe(4-Cl)][d3Pal]S[Phe(4-NH2)](Dihydroorotyl(S))[dPhe(4-NHCONH2)]L[Lys(iPr)]P[dA]-NH2) | consistently more expansion | higher incidence of survival | < 0.001 | at least 48 hours | < 0.05 | < 0.0001 | induction | significantly more | significantly more | more stem cells | relatively unchanged | drastically less | enhanced survival | –
CCNC(=O)[C@@H]1CCCN1C(=O)[C@H](CCCNC(=N)N)NC(=O)[C@H](CC(C)C)NC(=O)[C@@H](CC(C)C)NC(=O)[C@H](Cc1ccc(O)cc1)NC(=O)[C@H](CO)NC(=O)[C@H](Cc1c[nH]c2ccccc12)NC(=O)[C@H](Cc1c[nH]cn1)NC(=O)[C@@H]1CCC(=O)N1 [Lupron, leuprolide] | – | – | – | – | – | – | – | – | – | – | – | – | – | significant survival
